Measured values taken from the supplement of paper PMC3334620.
Over roughly 33,000 sequences, “E-score (-0.5 to 0.5)” has its median near -0.016; the highest 2% begin near 0.32. The list shows a part of the results.

Biological target: T1, Stp1 (UniProt B3LFK1)
T1 sequence: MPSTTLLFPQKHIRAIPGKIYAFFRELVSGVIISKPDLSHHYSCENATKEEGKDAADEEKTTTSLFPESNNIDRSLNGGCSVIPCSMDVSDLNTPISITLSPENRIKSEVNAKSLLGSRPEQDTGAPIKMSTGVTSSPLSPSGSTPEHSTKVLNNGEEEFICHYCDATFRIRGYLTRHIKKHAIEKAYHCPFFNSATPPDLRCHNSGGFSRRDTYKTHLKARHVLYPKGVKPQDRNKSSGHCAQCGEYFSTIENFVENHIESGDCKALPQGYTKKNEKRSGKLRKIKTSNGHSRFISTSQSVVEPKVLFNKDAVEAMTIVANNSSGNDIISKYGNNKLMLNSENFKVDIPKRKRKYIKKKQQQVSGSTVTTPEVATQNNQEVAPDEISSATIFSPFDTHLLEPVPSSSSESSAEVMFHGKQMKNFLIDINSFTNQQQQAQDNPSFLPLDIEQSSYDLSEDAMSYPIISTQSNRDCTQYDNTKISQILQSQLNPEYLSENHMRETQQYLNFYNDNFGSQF
Assay: PBM E-score (8-mer binding enrichment) (E-score (-0.5 to 0.5)); higher = stronger / more preferred TF binding; most listed sequences are background and not binding sites
Conditions: protein concentration: 200 nM; construct: GST-full length
Outline: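 Each ungapped eight-base word and its reverse complement, pooled, received an E-score from the Universal PBM Analysis Suite. Underlying scans, normalised with masliner, recorded fluorescent anti-GST bound to GST-tagged yeast transcription factors. These were applied at about 100-200 nM to universal all-10-mer Agilent arrays double-stranded by primer extension.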

Sequence	PBM E-score
ATCTAACC	-0.0609
AGAGGACA	-0.18
CCCAACGG	-0.0673
AGTTCGCA	0.0346
ATCGCGAC	-0.00642
AACCGCAT	0.188
CCCTACCA	0.0901
CTACTGTA	0.0443
TGGTCTAA	-0.0611
AAAATTGA	0.118
AGTTTGCC	0.157
GCGGCAGA	0.261
CGAAAGGC	0.355
GACAGGCC	-0.184
CGAAGCGC	-0.0203
TACTCTCA	-0.0702
GATTGTGA	-0.0398
GACAGCTC	-0.34
GTTGAGCA	-0.119
GAAAGGAC	0.0713
ATAGTTAA	-0.0226
CCGAGCCC	-0.29

Sequence	PBM E-score
CGCCGGTC	0.226
AGTGTACG	0.114
AGCTACCG	-0.16
ATCCAATA	0.0666
CCCAACCC	-0.174
CAGAACTA	-0.124
ACGCCACT	0.124
CGTTAGCC	0.00817
TAAGCGGA	-0.0184
CGCTCAAA	0.0128
GATAATTA	0.206
CACTGACG	0.024
CGCAGCCG	0.0895
AAATAGGA	0.0865
AACTGCTG	-0.201
AGAGGGTA	-0.144
CCGTTCTC	0.126
CGCTGCAA	0.062
AAGGCGCT	0.396
GCCGCTCC	0.398
ACACCTGT	-0.0431
CAGTTTGA	0.047

Sequence	PBM E-score
AATTCTCT	-0.0728
GTCACAAA	-0.0375
CCCCGGAG	-0.325
GCATCAGA	0.0787
AACGTCTT	-0.0314
GTACCCTA	-0.11
GTCTGCCA	-0.0635
AATCTGCC	-0.0157
ACGAAACA	0.0445
GTCTCCGA	-0.0488
ACTGGCCA	-0.155
AAATTAAA	0.213
TATGTGCA	0.0127
CGCTGACG	-0.218
TATAAACA	0.106
CTGCAAGC	-0.167
CCAGCAGA	0.0777
CATCGGAG	-0.251
CTGATCAA	-0.186
ACAGTGTG	0.0421
AGCGTGTA	0.0473
AATCTAGG	0.0359

Sequence	PBM E-score
ACTGATGA	-0.00519
GAAACCGA	-0.117
GTGGGTGA	-0.00775
ACATAATA	0.271
CCTCAATC	0.0837
CCAAAAGG	0.0993
GTTGATCA	0.0772
GAATAGAC	4e-05
CTTGGCAA	-0.119
GGAGTACA	-0.00077
CAATGCTG	-0.0733
TGACCTCA	-0.179
CACGGGGG	-0.208
GGAATTCA	-0.0981
ACAAAACT	-0.0132
CAAAAGCG	0.139
GGCACGAA	0.389
CGTCGTAC	0.00437
ACTGGAGC	-0.132
CGACAAAC	-0.0673
